Laboratory results reported in paper PMC11381347.
Results are given in words; binding and its absence hold for the method and conditions named. Binding seen in cells or lysates may run through a third protein. Some entries that bind do so weakly or less than the wild type.

Amino acid sequences for entries named in this document (tags omitted). A change or cut given only in a name is not applied to a line headed by its entry. Chains listed by the source or under a name are the forms on record and can include a tag or linker. Residues count along the entry.
UniProt Q8NFC6: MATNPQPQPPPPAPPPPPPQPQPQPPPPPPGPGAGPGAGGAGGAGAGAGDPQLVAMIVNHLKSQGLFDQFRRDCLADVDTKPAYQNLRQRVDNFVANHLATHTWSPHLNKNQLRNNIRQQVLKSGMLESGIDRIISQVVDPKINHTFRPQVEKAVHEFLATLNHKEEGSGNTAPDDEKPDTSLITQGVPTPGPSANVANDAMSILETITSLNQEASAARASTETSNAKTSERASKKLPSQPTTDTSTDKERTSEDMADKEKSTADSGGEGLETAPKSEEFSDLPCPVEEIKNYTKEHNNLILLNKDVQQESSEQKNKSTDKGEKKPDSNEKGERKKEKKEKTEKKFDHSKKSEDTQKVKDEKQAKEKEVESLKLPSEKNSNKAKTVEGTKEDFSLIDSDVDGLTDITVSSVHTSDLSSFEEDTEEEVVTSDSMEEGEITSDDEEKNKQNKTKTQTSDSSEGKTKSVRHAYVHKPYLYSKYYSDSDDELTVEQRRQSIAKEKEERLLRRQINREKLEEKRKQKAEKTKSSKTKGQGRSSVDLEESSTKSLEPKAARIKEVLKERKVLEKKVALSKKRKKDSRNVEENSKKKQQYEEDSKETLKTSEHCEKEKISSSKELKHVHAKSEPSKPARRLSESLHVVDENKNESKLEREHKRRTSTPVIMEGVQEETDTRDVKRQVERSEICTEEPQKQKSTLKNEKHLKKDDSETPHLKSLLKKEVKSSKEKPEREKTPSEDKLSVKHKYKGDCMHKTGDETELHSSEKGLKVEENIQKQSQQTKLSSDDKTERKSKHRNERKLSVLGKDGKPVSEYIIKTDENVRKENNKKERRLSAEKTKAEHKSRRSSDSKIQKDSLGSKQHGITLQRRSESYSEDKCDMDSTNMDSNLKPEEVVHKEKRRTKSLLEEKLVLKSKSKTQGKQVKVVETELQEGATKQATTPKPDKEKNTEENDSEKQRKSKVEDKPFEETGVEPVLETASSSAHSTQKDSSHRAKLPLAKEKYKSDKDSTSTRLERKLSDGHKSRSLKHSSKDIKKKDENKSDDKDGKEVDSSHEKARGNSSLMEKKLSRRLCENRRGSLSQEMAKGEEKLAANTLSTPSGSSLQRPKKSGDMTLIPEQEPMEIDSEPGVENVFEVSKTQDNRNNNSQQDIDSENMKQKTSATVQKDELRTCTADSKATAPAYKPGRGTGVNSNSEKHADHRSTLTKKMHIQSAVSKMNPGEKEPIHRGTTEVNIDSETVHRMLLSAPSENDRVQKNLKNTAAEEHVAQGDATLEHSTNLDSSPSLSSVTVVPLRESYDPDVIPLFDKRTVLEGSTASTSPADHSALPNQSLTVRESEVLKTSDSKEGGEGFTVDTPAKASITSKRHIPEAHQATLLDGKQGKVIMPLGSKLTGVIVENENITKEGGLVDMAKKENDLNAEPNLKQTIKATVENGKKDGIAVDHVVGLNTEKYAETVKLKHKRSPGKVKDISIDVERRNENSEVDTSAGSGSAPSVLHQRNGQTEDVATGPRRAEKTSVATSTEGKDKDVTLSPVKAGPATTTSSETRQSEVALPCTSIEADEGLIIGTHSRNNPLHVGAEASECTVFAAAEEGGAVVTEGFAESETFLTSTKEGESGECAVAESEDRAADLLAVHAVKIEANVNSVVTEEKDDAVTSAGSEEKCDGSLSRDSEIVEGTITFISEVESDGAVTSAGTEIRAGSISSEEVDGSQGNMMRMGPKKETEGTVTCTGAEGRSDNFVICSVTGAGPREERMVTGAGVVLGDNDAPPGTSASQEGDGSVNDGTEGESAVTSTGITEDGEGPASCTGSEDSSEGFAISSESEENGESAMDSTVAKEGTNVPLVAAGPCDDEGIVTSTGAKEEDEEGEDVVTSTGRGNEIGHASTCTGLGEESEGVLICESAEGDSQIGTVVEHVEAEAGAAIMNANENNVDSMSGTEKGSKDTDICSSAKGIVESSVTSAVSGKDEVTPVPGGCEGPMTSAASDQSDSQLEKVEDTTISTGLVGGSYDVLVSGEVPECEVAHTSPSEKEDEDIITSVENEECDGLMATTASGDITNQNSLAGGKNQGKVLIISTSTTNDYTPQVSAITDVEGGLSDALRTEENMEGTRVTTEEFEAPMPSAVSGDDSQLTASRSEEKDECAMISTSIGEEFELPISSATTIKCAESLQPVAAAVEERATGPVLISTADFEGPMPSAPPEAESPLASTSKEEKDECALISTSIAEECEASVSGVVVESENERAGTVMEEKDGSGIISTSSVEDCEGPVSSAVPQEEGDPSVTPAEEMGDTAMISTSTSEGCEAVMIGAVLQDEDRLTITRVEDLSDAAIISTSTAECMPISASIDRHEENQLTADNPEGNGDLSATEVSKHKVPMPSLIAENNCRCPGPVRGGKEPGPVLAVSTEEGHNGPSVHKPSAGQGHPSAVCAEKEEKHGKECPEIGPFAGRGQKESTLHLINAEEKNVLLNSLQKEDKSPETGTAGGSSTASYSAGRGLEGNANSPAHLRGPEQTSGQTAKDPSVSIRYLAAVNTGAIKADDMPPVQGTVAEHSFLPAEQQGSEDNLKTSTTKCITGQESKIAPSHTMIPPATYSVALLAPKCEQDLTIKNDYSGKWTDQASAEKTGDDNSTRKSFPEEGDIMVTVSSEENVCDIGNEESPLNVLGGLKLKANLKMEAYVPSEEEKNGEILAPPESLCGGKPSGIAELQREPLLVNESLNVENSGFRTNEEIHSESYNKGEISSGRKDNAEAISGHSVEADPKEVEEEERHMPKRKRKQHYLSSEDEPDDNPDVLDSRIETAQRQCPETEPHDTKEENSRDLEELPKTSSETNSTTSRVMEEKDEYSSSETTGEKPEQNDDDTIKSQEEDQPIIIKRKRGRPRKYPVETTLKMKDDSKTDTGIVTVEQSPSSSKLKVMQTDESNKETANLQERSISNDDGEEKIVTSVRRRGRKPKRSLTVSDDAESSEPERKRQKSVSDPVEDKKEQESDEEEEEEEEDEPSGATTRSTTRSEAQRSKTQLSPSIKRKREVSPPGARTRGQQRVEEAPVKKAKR
BOD1L N200 (1–200aa), expressed in 293T cells: residues 1-200 of Q8NFC6
BOD1L N200 with a W104A mutation, expressed in 293T cells (Q8NFC6, form named): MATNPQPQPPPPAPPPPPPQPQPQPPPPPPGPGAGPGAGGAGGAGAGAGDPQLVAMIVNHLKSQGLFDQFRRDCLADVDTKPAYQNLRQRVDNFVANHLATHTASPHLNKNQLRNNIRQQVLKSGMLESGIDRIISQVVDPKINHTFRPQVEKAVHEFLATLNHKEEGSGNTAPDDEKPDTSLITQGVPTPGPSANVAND
UniProt O15047: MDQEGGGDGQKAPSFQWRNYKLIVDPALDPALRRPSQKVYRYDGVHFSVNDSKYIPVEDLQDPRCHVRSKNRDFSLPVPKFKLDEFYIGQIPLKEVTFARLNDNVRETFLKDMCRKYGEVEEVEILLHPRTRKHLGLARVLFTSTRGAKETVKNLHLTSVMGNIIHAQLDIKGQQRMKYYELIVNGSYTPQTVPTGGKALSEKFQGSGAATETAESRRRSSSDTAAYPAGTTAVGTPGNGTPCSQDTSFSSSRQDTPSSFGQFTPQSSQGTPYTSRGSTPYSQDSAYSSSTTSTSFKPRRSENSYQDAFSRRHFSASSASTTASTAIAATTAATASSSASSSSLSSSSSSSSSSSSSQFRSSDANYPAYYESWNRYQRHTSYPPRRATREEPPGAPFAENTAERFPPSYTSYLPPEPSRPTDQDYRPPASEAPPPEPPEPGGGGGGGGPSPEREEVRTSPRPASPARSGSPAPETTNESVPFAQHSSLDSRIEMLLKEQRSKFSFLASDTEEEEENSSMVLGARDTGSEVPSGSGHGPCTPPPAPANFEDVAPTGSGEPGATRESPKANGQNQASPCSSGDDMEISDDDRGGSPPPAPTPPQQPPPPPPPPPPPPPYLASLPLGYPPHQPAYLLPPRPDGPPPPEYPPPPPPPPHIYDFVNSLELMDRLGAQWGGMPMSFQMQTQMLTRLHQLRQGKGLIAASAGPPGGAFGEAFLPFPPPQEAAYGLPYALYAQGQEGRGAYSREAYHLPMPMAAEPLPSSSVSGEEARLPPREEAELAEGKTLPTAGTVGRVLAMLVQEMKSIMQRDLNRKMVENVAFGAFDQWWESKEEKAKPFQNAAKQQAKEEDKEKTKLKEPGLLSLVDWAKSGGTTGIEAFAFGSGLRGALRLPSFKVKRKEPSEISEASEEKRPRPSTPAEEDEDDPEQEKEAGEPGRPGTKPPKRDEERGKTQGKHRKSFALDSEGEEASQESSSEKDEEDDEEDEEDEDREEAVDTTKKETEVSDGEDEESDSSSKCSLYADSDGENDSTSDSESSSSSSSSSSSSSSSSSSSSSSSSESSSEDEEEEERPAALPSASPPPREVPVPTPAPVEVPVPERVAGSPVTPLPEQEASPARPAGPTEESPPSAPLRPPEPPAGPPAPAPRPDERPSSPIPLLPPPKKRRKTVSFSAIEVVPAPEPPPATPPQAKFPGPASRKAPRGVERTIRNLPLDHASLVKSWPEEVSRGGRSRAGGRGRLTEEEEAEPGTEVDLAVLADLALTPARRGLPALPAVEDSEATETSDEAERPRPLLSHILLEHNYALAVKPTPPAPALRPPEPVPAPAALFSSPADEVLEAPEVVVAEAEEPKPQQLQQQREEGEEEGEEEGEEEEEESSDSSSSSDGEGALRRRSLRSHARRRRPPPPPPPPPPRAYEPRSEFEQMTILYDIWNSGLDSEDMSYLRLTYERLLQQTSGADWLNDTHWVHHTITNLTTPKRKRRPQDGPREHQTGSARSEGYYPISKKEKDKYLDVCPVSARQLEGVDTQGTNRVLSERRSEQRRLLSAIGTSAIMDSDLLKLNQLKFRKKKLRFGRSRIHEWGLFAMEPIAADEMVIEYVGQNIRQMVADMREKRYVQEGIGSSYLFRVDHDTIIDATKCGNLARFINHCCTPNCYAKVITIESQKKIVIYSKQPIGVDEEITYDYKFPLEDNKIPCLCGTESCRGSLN
UniProt O75909: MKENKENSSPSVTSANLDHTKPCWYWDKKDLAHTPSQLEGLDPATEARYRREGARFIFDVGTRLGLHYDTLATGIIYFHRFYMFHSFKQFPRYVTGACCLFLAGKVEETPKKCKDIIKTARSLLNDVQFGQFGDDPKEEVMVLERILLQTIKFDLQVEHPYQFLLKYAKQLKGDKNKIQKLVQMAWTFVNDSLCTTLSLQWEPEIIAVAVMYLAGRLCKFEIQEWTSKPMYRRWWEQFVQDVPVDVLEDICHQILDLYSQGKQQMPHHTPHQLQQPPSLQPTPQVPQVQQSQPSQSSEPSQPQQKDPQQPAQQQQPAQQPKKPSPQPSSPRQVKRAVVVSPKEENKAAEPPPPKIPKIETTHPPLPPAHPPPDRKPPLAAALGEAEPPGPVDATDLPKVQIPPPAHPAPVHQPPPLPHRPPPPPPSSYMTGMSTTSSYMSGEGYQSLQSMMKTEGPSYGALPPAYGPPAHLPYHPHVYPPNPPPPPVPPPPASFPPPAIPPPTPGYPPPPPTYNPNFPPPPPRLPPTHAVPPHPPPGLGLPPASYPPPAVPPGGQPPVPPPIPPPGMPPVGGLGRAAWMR

Columns and labels:
[1] = target: BOD1L, full-length human (human) (UniProt Q8NFC6); assay: co-IP; as the other co-IPs, lysate treated with 2 mM MgCl2 and 100 U Benzonase for 2 h at 4 °C to remove nucleic acid
[2] = target: BOD1L N200 (1–200aa), expressed in 293T cells (human) (UniProt Q8NFC6); assay: co-IP; 293T cells; BOD1L constructs precipitated (anti-FLAG M2 or anti-HA agarose, overnight 4 °C), SETD1A detected by western blot; washes with 0.5 M STEN buffer (500 mM NaCl, 0.2% NP-40)
[3] = target: BOD1L N200 with a W104A mutation, expressed in 293T cells (human) (UniProt Q8NFC6); assay: as above
[4] = target: SETD1A (wild type) (human) (UniProt O15047); assay: co-IP; 293T cells transfected with tagged constructs; SETD1A constructs precipitated (anti-FLAG M2 or anti-HA agarose, overnight 4 °C), BOD1L and cyclin K detected by western blot; washes with 0.5 M STEN buffer (500 mM NaCl, 0.2% NP-40)

binding [1]	binding [2]	binding [3]	binding [4]	Substance
binds	binds	no binding	–	SETD1A (wild type) (from UniProt O15047 1-1707)
–	–	–	binds	cyclin K (from UniProt O75909 1-580)
–	–	–	binds	BOD1L, full-length human (from UniProt Q8NFC6 1-3051)
